# Measurements taken from publication PMC4336329 (PLoS ONE, 2015).
# The whole screen tested about 310,000 compounds, of which about 14,000 (4.5%) showed an effect of 50% or more. Effects have a minus sign here. This is one part of the list.
# Biological target: human ether-à-go-go-related gene (hERG) potassium channel (human, UniProt Q12809)
# Test: primary screen, population patch clamp on CHO cells stably expressing hERG
# 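Also: peak tail current of the secondary pulse compared with the same well before compound.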
# human ether-à-go-go-related gene (hERG) potassium channel, sequence (Q12809 whole entry, looked up): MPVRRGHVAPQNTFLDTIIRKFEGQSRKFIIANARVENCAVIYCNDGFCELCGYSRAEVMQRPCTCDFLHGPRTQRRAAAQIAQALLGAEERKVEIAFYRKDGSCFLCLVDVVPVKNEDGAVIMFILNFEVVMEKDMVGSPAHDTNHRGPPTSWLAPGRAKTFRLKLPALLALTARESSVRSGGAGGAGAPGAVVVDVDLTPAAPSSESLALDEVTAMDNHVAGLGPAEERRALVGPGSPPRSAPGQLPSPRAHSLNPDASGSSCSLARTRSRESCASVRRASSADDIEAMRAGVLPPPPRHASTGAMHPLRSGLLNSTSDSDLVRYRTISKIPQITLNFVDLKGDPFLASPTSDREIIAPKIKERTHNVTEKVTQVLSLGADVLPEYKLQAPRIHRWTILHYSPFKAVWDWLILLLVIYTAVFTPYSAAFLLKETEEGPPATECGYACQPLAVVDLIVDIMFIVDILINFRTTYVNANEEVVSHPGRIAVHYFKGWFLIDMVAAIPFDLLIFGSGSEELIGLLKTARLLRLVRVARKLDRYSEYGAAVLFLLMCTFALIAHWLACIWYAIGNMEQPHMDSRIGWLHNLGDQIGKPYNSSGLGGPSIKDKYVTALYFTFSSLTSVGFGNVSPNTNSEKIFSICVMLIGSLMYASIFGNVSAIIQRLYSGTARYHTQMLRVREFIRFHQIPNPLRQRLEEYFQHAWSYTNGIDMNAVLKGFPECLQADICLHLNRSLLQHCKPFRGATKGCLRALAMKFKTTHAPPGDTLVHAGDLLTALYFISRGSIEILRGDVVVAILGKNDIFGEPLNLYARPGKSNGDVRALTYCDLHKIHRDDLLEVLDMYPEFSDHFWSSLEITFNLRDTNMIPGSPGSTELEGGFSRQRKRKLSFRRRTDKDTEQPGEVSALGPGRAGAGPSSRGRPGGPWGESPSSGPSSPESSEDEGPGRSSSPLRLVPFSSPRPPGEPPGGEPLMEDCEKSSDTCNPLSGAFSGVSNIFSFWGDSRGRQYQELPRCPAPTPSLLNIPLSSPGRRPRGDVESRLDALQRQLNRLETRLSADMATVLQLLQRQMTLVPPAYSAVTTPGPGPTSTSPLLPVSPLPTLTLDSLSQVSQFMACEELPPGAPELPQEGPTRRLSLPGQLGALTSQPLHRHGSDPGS
row,SMILES,"hERG current change (%, negative = inhibition) at 10uM [%]"
1,CCCCOC(=O)Nc1ccc(S(=O)(=O)Nc2nccs2)cc1,1.42
2,CCc1ccccc1NC(=O)CSc1nc(C)c(C)o1,9.02
3,CCN(CC)CCOc1ccc2c(c1)C(=NNC(=O)c1ccccn1)c1cc(OCCN(CC)CC)ccc1-2,8.82
4,COc1ccc(C(=O)NCCCCCC(=O)O)cc1OC,-13.1
5,CC(C)c1ccc(N=c2c([N+](=O)[O-])nn(-c3ccc4c(c3)OCCO4)n2O)cc1,1.98
6,COc1ccc(NC(=O)CCNS(=O)(=O)c2ccc3c(c2)c(=O)n(C)c(=O)n3C)c(OC)c1,0.0542
7,Cc1ccc(N2CCN(C(=O)c3ccccc3Br)CC2)c(C)c1,-8.07
8,c1ccc(-c2csc(-n3cccn3)n2)cc1,15.5
9,CC(C)(C)NC(=O)C1CC(=O)OC1(C)C (stereo not shown),5.53
10,CS(=O)(=O)N1CCc2cc(C(=O)N3CCN(c4ccccc4F)CC3)ccc21,-19.3
11,COc1ccc(C(O)C(CN2CCOCC2)c2ccccc2)cc1F.Cl (stereo not shown),1.04
12,O=C(Nc1ccccc1)c1csc(-c2ccccc2)n1,14.3
13,CN1C(=O)/C(=C/c2ccc(OC(=O)c3ccco3)cc2)SC1=S,-8.91
14,COC(=O)C1=C(c2cccc(C#N)c2)C[C@@H]2CC[C@H]1N2C(=O)NCc1cccc2ccccc12,-22.1
15,COC(=O)c1[nH]c2cccc(Cl)c2c1NC(=O)CN1CCN(CCO)CC1,-0.514
16,FC(F)Oc1ccccc1NC(=S)NCCc1ccccc1,-4.2
17,CCC(=O)N1c2ccc(S(=O)(=O)CCC(=O)Nc3nccs3)cc2CC1C (stereo not shown),6
18,O=C(COC(=O)C1CCN(S(=O)(=O)c2ccc(Cl)c(C(F)(F)F)c2)CC1)NCc1ccco1,1.68
19,COc1ccc(-c2ncncc2-c2ccc(Cl)cc2)c(O)c1,-46.8
20,CC(C)=NN/C(N)=N/C(=S)Nc1ccc(C)cc1,-3.24
21,CCOc1ccc(C(Nc2ccc(C)cc2)P2(=O)OCCC(C)O2)cc1 (stereo not shown),-18.6
22,CS(=O)(=O)N(CCc1ccccc1)CC(=O)N1CCN(Cc2ccc3c(c2)OCO3)CC1,-49.7

row,SMILES,"hERG current change (%, negative = inhibition) at 10uM [%]"
1,O=C(c1ccc(-c2cccc(C(F)(F)F)c2)o1)N1CCCCCCC1,-3.68
2,Cc1ccc(S(=O)(=O)N2CCCCC2)cc1NC(=O)C1CC(=O)N(Cc2ccccc2)C1 (stereo not shown),-12.9
3,CC(=O)Nc1ccc(S(=O)(=O)N2CCN=C2c2ccccc2)cc1,12.4
4,O=C(c1ccc(S(=O)(=O)Cc2cc(F)ccc2F)c([N+](=O)[O-])c1)N1CCCCC1,1.34
5,COc1ccc(NC(C)=O)cc1NC(=O)C1CCN(C(=O)Nc2ccccc2)CC1,9.01
6,COc1cc(CO)cc(Br)c1OCc1cccnc1,13.1
7,Cc1cccc(NC(=O)C(=O)NNC(=O)c2ccc(C(C)(C)C)cc2)c1,22.4
8,COCCn1c(SCC(=O)N2CCCc3ccccc32)nc2c(c1=O)SC(C)C2 (stereo not shown),-21.6
9,Cc1cccc(-c2noc(-c3c(C)noc3C)n2)c1,26.9
10,COc1ccc(C2CC(=O)c3cnc(NC(=O)c4ccccc4)nc3C2)cc1OC (stereo not shown),-15.7
11,CC1(C)Cc2c(sc3ncnc(NNC(=S)NCc4ccccc4)c23)CO1,17.2
12,COc1cc(O)c(C(CC(=O)N2CCCCC2)c2ccc3c(c2)OCO3)c(OC)c1 (stereo not shown),5.41
13,C=C(C)Cn1c(=O)c2c(nc3n2CC(C)CN3Cc2ccccc2)n(C)c1=O (stereo not shown),-65.6
14,O=C1/C(=C/c2cccc([N+](=O)[O-])c2)CCc2ccccc21,-12
15,N/C(=N\[N+](=O)[O-])N/N=C/c1ccc(O)cc1,3.79
16,Cc1nnc2ccc(-c3cccc(NS(C)(=O)=O)c3)nn12,-17.1
17,Cc1ccc(S(=O)(=O)NCCN2CCOCC2)c(C)c1.Cl,26.4
18,O=C(Nc1ccc2nc(N3CCOCC3)sc2c1)c1ccc(F)cc1,-8.16
19,CCOC(=O)CCNC(=O)CNC(=O)OCc1ccccc1,10.8
20,CC(=O)n1cc([C@H]2C=C(C(=O)N3CCN(Cc4ccc5c(c4)OCO5)CC3)O[C@@H](OCc3ccc(CO)cc3)C2)c2ccccc21,3.43
21,COc1ccc(OCC(=O)NNC(=O)C2CCCO2)cc1 (stereo not shown),5.39
22,CC(=O)N1CCN(c2ccccc2NC(=O)c2cc(Br)ccc2Cl)CC1,-66.6

row,SMILES,"hERG current change (%, negative = inhibition) at 10uM [%]"
1,O=C(O)C(=O)O.O=C(c1cccc2ccccc12)N1CCN(Cc2ccccc2F)CC1,5.84
2,COc1cccc(CNC(=O)CCS(=O)(=O)c2ccc3c(c2)NC(=O)CS3)c1,-3.23
3,O=C(CS(=O)(=O)c1c[nH]c2ccccc12)N1CCCCC1,9.51
4,O=C(NC(C(=O)N1CCCC1C(=O)O)=C1CCCCC1)c1ccccc1 (stereo not shown),1.36
5,O=C(Nc1ccccc1)c1cc(-n2cnnc2)ccc1Cl,9.46
6,COc1cccc(NC(=O)CN(c2cccc(C(F)(F)F)c2)S(C)(=O)=O)c1,-3.67
7,O=C(O)C1CCCCC1C(=O)Nc1ccc2c(c1)CCC2 (stereo not shown),1.57
8,COc1ccc(CC(=O)NCC(=O)N/N=C/c2sccc2C)cc1,-33.3
9,CCC1C(=O)N=C(SCC(=O)Nc2ccc(C(=O)OC)cc2)NC1=O (stereo not shown),10.4
10,Cc1cc(=O)c2cc(NC(=O)c3ccccc3Cl)ccc2[nH]1,17.3
11,Cc1n[nH]c(C)c1S(=O)(=O)N1CCCC(C(=O)N2CCc3ccccc32)C1 (stereo not shown),-5.49
12,CN(C)c1ccc2c(c1)Sc1cc(N(C)C)ccc1N2C(=O)c1ccccc1,17.8
13,CCCCN(CC)CCNC(=O)Cn1cnc2sc(C)c(S(=O)(=O)N3CCC(C)CC3)c2c1=O,-19.1
14,CCc1cccc(NC2c3ccccc3C(=O)N2c2ccc(C)cn2)c1 (stereo not shown),-25.5
15,Cn1c(=O)c(-c2ccccc2)nc2ccccc21,-11.6
16,O=C(Cc1ccc(Cl)cc1)NCc1ccccc1Cl,18
17,NC(=O)NCCc1ccccc1,-1.42
18,CCOc1ccccc1NC(=O)CCS(=O)(=O)c1ccc(Br)cc1,18.2
19,O=[N+]([O-])c1ccc(C2CNC(c3ccccc3)O2)cc1 (stereo not shown),15.9
20,CCOC(=O)c1ccc(NC(=O)CCNS(=O)(=O)c2cccs2)cc1,13.6
21,CCCOc1ccc(-c2nc(N)n[nH]2)cc1,-7.44
22,Cc1ccc(SCC(=O)OCC(=O)N(CCC#N)c2ccccc2)cc1,-0.0528

row,SMILES,"hERG current change (%, negative = inhibition) at 10uM [%]"
1,c1ccc(CCc2cc3ccccc3[nH]2)cc1,3.91
2,Cc1nn2c(c1-c1ccccc1)NC1=C(C(=O)CCC1)C2c1ccccc1 (stereo not shown),-39.1
3,CC(C)NC(=O)Cn1c(=O)n(CC(=O)N2CCCCC2)c(=O)c2sccc21,15.9
4,c1csc(-c2nc(NCC3CCCO3)c3ccccc3n2)c1 (stereo not shown),-20.5
5,Oc1c(CN2CCCC(C(F)(F)F)C2)cc(Cl)c2ccccc12 (stereo not shown),14.7
6,COc1ccc(C)c2sc(N3CCCC3)nc12,-20.2
7,O=C(COC(=O)c1ccccc1O)Nc1cc(S(=O)(=O)N2CCCCCC2)ccc1Cl,-9
8,COc1ccc(-c2nnc(COc3ccc(Br)cc3C)o2)cc1,14.3
9,CCOc1ncccc1C(=O)Nc1cc(S(=O)(=O)N2CCCCC2)ccc1OC,-8.23
10,Cc1ccc(NC(=O)CSc2ncnc3ccccc23)cc1S(=O)(=O)N1CCCCCC1,-22.6
11,O=C1C2CCCN2C(c2cccnc2)N1c1cccc(Cl)c1 (stereo not shown),-5.37
12,O=C(CC1SCCNC1=O)Nc1cc(Cl)cc(Cl)c1 (stereo not shown),-31.4
13,COc1ccc(-n2c(SCCNCCO)nc3sc4c(c3c2=O)CCCC4)cc1,-55.7
14,Cn1c(Cn2c(=O)sc3ccccc32)nnc1SCC(=O)NCc1ccccc1,-0.25
15,Cc1cc2n(n1)C(c1ccc3c(c1)OCO3)Nc1c(C)cccc1-2 (stereo not shown),2.58
16,CCCCn1ccnc1C(=O)c1cc(S(=O)(=O)N2CCOCC2)ccc1C,-4.88
17,CCCCN(C(=O)CSc1nnc(-c2ccco2)o1)c1c(N)n(Cc2ccccc2)c(=O)[nH]c1=O,4.8
18,Cc1cc(=O)oc2c(C)c(OCC(=O)N3CCN(C(=O)C4COc5ccccc5O4)CC3)ccc12 (stereo not shown),-50.4
19,c1ccc(Cn2ncc3c(NCc4ccco4)ncnc32)cc1,-6.2
20,O=C(OCCOc1cccc(Cl)c1)c1cc(S(=O)(=O)N2CCOCC2)ccc1F,-14
21,O=C(Nc1ccccc1)OCCCCCOC(=O)Nc1ccccc1,22.2
22,Cc1cccc(NC(=O)N2CCC(c3nc4ccccc4o3)CC2)c1,-12.4
